Article PMC6919601, “Identification of Plasmodium dipeptidyl aminopeptidase allosteric inhibitors by high throughput screening” (PLoS ONE, 2019)
About 230 (0.21%) of roughly 110,000 compounds showed an effect of 50% or more. The list shows a part of the results.

target: DPAP1 (Plasmodium falciparum, UniProt Q8IIJ9); experiment: primary screen, percent inhibition; read by cleavage of a fluorogenic dipeptide substrate; higher = more effect of the substance; set-up: species or system P. falciparum D10 trophozoite lysates; single well
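Further: 30 min substrate incubation versus DMSO and 10 µM JCP410 controls.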

Sequence of DPAP1 (Q8IIJ9 whole entry, looked up): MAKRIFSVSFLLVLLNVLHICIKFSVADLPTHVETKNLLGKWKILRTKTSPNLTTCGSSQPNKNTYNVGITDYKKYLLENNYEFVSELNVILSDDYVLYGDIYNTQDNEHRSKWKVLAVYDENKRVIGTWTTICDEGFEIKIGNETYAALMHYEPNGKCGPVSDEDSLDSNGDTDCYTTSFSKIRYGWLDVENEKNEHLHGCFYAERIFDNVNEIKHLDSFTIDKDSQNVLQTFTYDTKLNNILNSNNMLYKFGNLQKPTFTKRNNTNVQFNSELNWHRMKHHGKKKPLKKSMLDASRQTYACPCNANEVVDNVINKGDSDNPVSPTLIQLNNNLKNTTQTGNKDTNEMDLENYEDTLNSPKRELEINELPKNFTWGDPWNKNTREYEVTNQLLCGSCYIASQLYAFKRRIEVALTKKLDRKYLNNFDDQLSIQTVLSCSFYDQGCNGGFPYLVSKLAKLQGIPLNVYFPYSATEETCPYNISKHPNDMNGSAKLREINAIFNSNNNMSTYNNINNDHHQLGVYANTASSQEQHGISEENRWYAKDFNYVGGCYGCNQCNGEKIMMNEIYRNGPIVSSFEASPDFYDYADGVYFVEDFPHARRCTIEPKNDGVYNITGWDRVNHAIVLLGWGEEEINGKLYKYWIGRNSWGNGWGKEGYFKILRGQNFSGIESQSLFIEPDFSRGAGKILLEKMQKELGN

| SMILES | % Inhibition @ 10 uM [%] |
| --- | --- |
| Cc1cccc(NC(=O)c2ccc3c(c2)C(=O)N(c2ccccn2)C3=O)c1C | -2.29 |
| O=C(Nc1cc(Cl)ccc1Cl)c1ccc2ccccc2c1 | 2.65 |
| CCOc1ccccc1C1C(C(=O)c2ccc(OC)cc2C)=C(O)C(=O)N1Cc1cccnc1 (stereo not shown) | -1.52 |
| CCC(C)(C)C1CCc2c(sc(NC(=O)CCCC(=O)O)c2C(N)=O)C1 (stereo not shown) | 2.38 |
| COC(=O)C1=CN(CC2CCCO2)C=C(C(=O)OC)C1c1ccsc1 (stereo not shown) | -3.41 |
| O=C(c1cccs1)N1CCN(CCN2C(=O)c3cccc4cccc(c34)C2=O)CC1 | 5.09 |
| CC(=O)Nc1ccc(NC(=O)COc2ccc3ccccc3c2Br)cc1 | 1.03 |
| Cc1ccc(OCC(=O)Nc2nnc(S(=O)(=O)N(C)Cc3ccco3)s2)cc1C | 2.25 |
| CCCC/N=C(\N)C(C)c1ccc(CC(C)C)cc1 (stereo not shown) | 2.24 |
| N=c1c(C(=O)NCCN2CCOCC2)cc2c(=O)n3ccccc3nc2n1Cc1cccnc1 | -3.27 |
| CCCCNC(=O)c1c(C)[nH]c(C(=O)OCC)c1C | 1.72 |
| COc1ccc(CN2C(=O)NC(=O)/C(=C\c3ccco3)C2=O)cc1 | 3.95 |
| COc1ccccc1C(=O)Nc1cc(-c2nc3cc(Cl)ccc3o2)ccc1C | 1.08 |
| CCS(=O)(=O)N1CCC(C(=O)NCC2CCCO2)CC1 (stereo not shown) | 0.302 |
| Cc1ccc(-n2nc3c(=O)n(CCCC(=O)NCc4ccc(Cl)cc4)nc(C)c3c2C)cc1 | -5.35 |
| Cc1ccc2nc(NC3CCCCCC3)c3nncn3c2c1 | -4.21 |
| c1ccc(-c2noc(CSc3nnnn3C3CCCCC3)n2)cc1 | 2.95 |
| COc1ccc(-c2cc(CCCC(=O)NCCc3cccs3)no2)cc1 | -3.1 |
| CCc1ccc2nc(N3CCC(C(=O)NCCN4CCCCC4C)CC3)sc2c1 (stereo not shown) | -6.4 |
| Cc1ccsc1CCNS(=O)(=O)c1cc(Br)cnc1N | -2.84 |
| CCN(CC)C(=O)C1CC(c2ccccc2F)=NO1 (stereo not shown) | -5.79 |
| O=C(NC(c1ccccc1)c1ccccc1)c1ccccn1 | -5.16 |
| COc1ccccc1CCNC(=O)CCCn1ccc2cc(S(=O)(=O)N3CCCC3)ccc21 | 1.11 |
| CC(C)n1c2ccc(F)cc2c2nc3ccccc3nc21 | -4.62 |
| CCN1CCCC1CNC(=O)c1cccc2c1SCCC2=O (stereo not shown) | 0.0845 |
| CCOC(=O)N1CCN(CC(O)COc2ccc(CC)cc2)CC1 (stereo not shown) | 7.39 |
| Cn1c(=O)c2c(ncn2CC(=O)NC(C)(C)C)n(C)c1=O | 0.611 |
| O=C(COc1ccccc1)NCc1ccncc1 | -1.95 |
